# Reference: PubChem BioAssay AID1508623 (National Center for Advancing Translational Sciences (NCATS), 2021)
# Hit rate of the full screen: of about 48,000 compounds, about 450 (0.94%) were called active. Another 19% or so got no clear call; they are omitted. Calls follow the shape of the dose curve; as a rule, active = well fitted inhibition curve with a large enough effect; inconclusive = small, poorly fitted or top-dose-only effect; inactive = no such curve, though single readings can be large or run the other way. This is one part of the list.
# Assay: Primary qHTS for Identification of Small Molecule Inhibitors of Huntingtin Promoter Activity; also: nearly all actives have a fitted effect of over 50% in size
# Conditions: HEK293 HTT promoter firefly luciferase reporter (activity 0% = vehicle and -100% = no light), 24 h; series mostly up to 57.5 µM; activity change, negative = inhibition: at the top concentration
# Method in brief: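 HEK293 cells carrying firefly luciferase reporters were seeded at 2,500 per well in Opti-MEM and cultured for 24 h. They were then treated with compounds at up to 57.5 uM final for 24 h at 37 degrees C before Dual-Glo luminescence readout.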
# Potency is read from the fitted curve at half-maximal effect.
SMILES,"activity change, negative = inhibition",Potency
COc1cc(-c2noc(CN3CCN(c4ccccc4)CC3)n2)cc(OC)c1OC,inactive: 8.59%,
CCOC(=O)c1ccccc1NC(=O)N1CCc2c(sc(C)c2CC)C1c1ccccc1 (centres undefined),inactive: -24.3%,
Cc1cccc(NC(=O)C(=O)NCC(c2ccc3c(c2)OCO3)N2CCOCC2)c1C (centres undefined),inactive: -23.9%,
CN1CCN(C(CNC(=O)c2cccc(F)c2)c2ccc3c(c2)OCO3)CC1 (centres undefined),inactive: -8.1%,
CCOc1ccc(-n2c(Cc3ccccc3)nnc2SCc2nc(-c3ccccc3OC)no2)cc1,inactive: -15%,
Cc1cc(C)c(NC(=O)C2CCN(c3nc4ccccc4[nH]3)CC2)c(C)c1,inactive: 3.16%,
Fc1ccc(C(c2ccc(F)cc2)N2CCN(CC=Cc3ccccc3)CC2)cc1,inactive: -19.8%,
O=C(Nc1ccc2oc(-c3ccccc3F)nc2c1)c1ccccc1Cl,inactive: 25%,
Cc1cccc(CSc2ncc(CO)n2Cc2ccc(F)cc2)c1,inactive: -13.7%,
Cc1ccc2c(c1)-c1nc(-c3ccc(Cl)cc3)cc(-c3coc4ccccc4c3=O)c1CO2,inactive: -15%,
CCCSc1ncc(Cl)c(C(=O)Nc2ccc(S(=O)(=O)Nc3ncccn3)cc2)n1,inactive: -15.1%,
COc1ccc(NC(=O)CSc2ncc3c(n2)-c2cc(Cl)ccc2N(Cc2ccccc2F)S3(=O)=O)cc1,inactive: -8.76%,
Cc1cc(C)c2c(=O)cc(C(=O)Nc3sc4c(c3C(=O)NCc3ccccc3)CCCC4)oc2c1,inactive: 0.603%,
Fc1ccc(-n2ncc3c(NCCCN4CCOCC4)ncnc32)cc1,inactive: 10.2%,
COC(=O)c1cc(S(=O)(=O)NCC2CCN(Cc3ccc(F)cc3)CC2)cn1C,inactive: -19.9%,
Cc1ccc2c(c1)N(CCC(=O)NCc1ccc(F)cc1)C(=O)CO2,inactive: -11.7%,
CC=C1C2C=C(C)CC1(N)c1ccc(=O)[nH]c1C2 (centres undefined),inactive: 0.234%,
CCOCCc1nn2c(=O)cc(COC(=O)CNC(=O)c3ccc(C(C)(C)C)cc3)nc2s1,inactive: -22.3%,
COc1cc(NC(=O)CCc2c(C)nn(-c3ccc4nncn4n3)c2C)cc(OC)c1OC,inactive: -13.4%,
Cc1ccc(Cl)cc1N1CCN(S(=O)(=O)c2ccc3[nH]c4c(c3c2)CCCCC4)CC1,inactive: -25.4%,

SMILES,"activity change, negative = inhibition",Potency
Cc1c(CC(=O)NCCc2ccccc2F)c(=O)oc2c(C)c3occ(C(C)(C)C)c3cc12,inactive: -21.8%,
COc1ccc(NC(=O)CSc2cn(CC(=O)N3CCOCC3)c3ccccc23)cc1OC,inactive: -8.02%,
COc1ccccc1CNS(=O)(=O)c1cc(C(=O)Nc2cccc(C(F)(F)F)c2)ccc1F,,active: 28.2 µM
Cc1cccc(OCC(=O)Nc2c(C)ccc3nsnc23)c1C,inactive: -22.3%,
CCc1ccc(S(=O)(=O)c2nnn3c2nc(N2CCC(C)CC2)c2cc(Cl)ccc23)cc1,inactive: -4.16%,
COc1ccc(-c2cc(C(=O)NCc3cc(OC)c(OC)c(OC)c3)[nH]n2)cc1,inactive: -13.7%,
O=C(CSc1ncc(S(=O)(=O)c2ccc(Br)cc2)c(=O)[nH]1)NCc1ccc(Cl)cc1,inactive: -8.54%,
Cc1ccc(C)c(NC(=O)CCN2C(=O)c3ccccc3Sc3ncccc32)c1,inactive: -13.9%,
O=C(Nc1ccccc1)C(Cc1ccccc1)N1Cc2ccccc2C1=O (centres undefined),inactive: -21.5%,
CCOc1ccc(-c2nc(CSCC(=O)N3CCN(c4cccc(C(F)(F)F)c4)CC3)c(C)o2)cc1,,active: 15.8 µM
Cc1nc(N2C(=O)c3oc4ccccc4c(=O)c3C2c2ccccc2F)sc1C (centres undefined),inactive: -13.6% [at 11.5 µM],
COc1cccc(N2CCN(S(=O)(=O)c3cc(Br)cc4c3N(C(=O)C3CC3)CC4)CC2)c1,inactive: 19.7%,
CN1CCN(C(CNC(=O)C(=O)Nc2ccccc2)c2ccc3c(c2)OCO3)CC1 (centres undefined),inactive: -10.4%,
Cc1cccc(-c2noc(CN(C(=O)COc3ccc(C(C)C)cc3)C(C)C)n2)c1,inactive: -25.9%,
Cc1ccc(C)c(CSc2nc3ncccc3[nH]2)c1,inactive: -14.9%,
Cc1ccc(CNC(=O)Cn2c3ncccc3c(=O)n2-c2ccc(C)cc2)cc1,inactive: -7.08%,
CC(C)c1cc(-c2nc(-c3cccc(Cl)c3)no2)n[nH]1,inactive: 23%,
CCOc1ccc(CNC(=O)CSc2c3c(nc4ccc(Cl)cc24)CCCC3)cc1,inactive: -20.7%,
Cc1ccc2oc(C(=O)Nc3sc4c(c3C(=O)NCc3ccco3)CCC4)cc(=O)c2c1,inactive: -0.704% [at 11.5 µM],
Cn1c(C(=O)NCc2cccc(Cl)c2)cc2oc3ccccc3c21,inactive: -15.6%,

SMILES,"activity change, negative = inhibition",Potency
C=C(C)[C@@H]1CC[C@]2(C(=O)O)CC[C@]3(C)[C@H](CC[C@@H]4[C@@]5(C)CC[C@H](O)C(C)(C)[C@@H]5CC[C@]43C)[C@@H]12,inactive: -15.2%,
COCCCNC(=O)c1ccc(Cn2c(=O)c3cccn3c3cccnc32)cc1,inactive: -17.9%,
Cc1ccc(Cn2c(CN3CCN(c4cccc(Cl)c4)CC3)nc3c2c(=O)n(C)c(=O)n3C)cc1,inactive: -30.1%,
NC(N)=Nc1nc(CSCCC(N)=NS(N)(=O)=O)cs1,inactive: 18.7%,
Cc1ccc2c(=O)cc(C(=O)Nc3c(C(=O)c4ccc(F)cc4)oc4ccccc34)oc2c1C,inactive: 2.97%,
COc1ccc(NC(=O)CC(C)S(=O)(=O)c2cc3c(cc2C)NC(=O)CO3)cc1OC (centres undefined),inactive: 4.87%,
O=C(Nc1nnc(S(=O)(=O)N2CCCCCC2)s1)c1ccc(Cl)cc1,inactive: -20.2%,
COc1ccccc1CNC(=O)C1CCN(c2nnc(C)c3c(C)n(-c4ccccc4)nc23)CC1,inactive: -17.4%,
Cc1ccc(NC(=O)CN2C(=O)CC(c3ccc(C)c(C)c3)=Nc3ccccc32)cc1,inactive: 1.01%,
CCC(CC)C(=O)Nc1cc(-c2nc3cccnc3s2)ccc1C,inactive: -3.37%,
Cc1cccc(C)c1OC(=O)CSc1nnc(-c2ccc3c(c2)OCO3)o1,inactive: -1.38%,
CCOC(=O)Cn1c(=O)oc2cc(S(=O)(=O)N3CCN(c4ccc(F)cc4)CC3)ccc21,inactive: -13.1%,
COc1ccc(Nc2c(-c3ccsc3)nc3nc(C)cc(C)n23)cc1,inactive: -11.9%,
COc1ccc(CCNC(=O)c2c(C)oc3ncn(CC(C)C)c(=O)c23)c(OC)c1,inactive: 15.7%,
CCSc1nc2ccccc2c(OCc2cc(C(=O)OC)ccc2OC)c1C(=O)OC,inactive: -34.2%,
COC(=O)c1c(C)sc(-c2c(-c3ccc(OC)c(F)c3)[nH]c3c2c(=O)n(C)c(=O)n3C)c1O,inactive: 17.5%,
CC(C)C(=O)Nc1nnc(S(=O)(=O)N2c3ccccc3CC2C)s1 (centres undefined),inactive: -8.06%,
CCCOc1cccc(C(=O)Nc2cccc(NC(=O)c3ccc(Cl)cc3Cl)c2)c1,inactive: -21.9%,
Cc1ccc(C(C)C)c(OCC(=O)Nc2ccc(O)c(-c3nc4cc(Cl)ccc4o3)c2)c1,inactive: 0.394%,
